# Assay results reported in PubChem BioAssay AID1745853 (National Center for Advancing Translational Sciences (NCATS), 2022).
# The list shows a part of the results. The main result of the screen is listed elsewhere. These columns were measured beside it and carry no call.
# Tests used:
# Experiment in all cases: Primary Screen for Target Class Profiling of Small Molecule Inhibitors of Methyltransferases
# [1] = molecular target: Glycine N-methyltransferase (Homo sapiens) (UniProt Q14749); conditions: purified enzyme, MTase-Glo SAH luminescence; measured here: GNMT inhibition; at 40 µM; stronger effect = lower value
# Procedure, shortened: (§1)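 Each enzyme was assayed with SAM and its substrate. SAH formation detected by MTase-Glo luminescence; single-point 40 uM screen[…].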
# [2] = molecular target: Guanidinoacetate N-methyltransferase (Homo sapiens) (UniProt Q14353); conditions: purified enzyme, MTase-Glo SAH luminescence; measured here: GAMT inhibition; at 40 µM; stronger effect = lower value
# Procedure, shortened: as §1
# [3] = molecular target: Histamine N-methyltransferase (Homo sapiens) (UniProt P50135); conditions: purified enzyme, MTase-Glo SAH luminescence; measured here: HNMT inhibition; at 40 µM; stronger effect = lower value
# Procedure, shortened: as §1
# [4] = molecular target: Nicotinamide N-methyltransferase (Homo sapiens) (UniProt P40261); conditions: purified enzyme, MTase-Glo SAH luminescence; measured here: NNMT inhibition; at 40 µM; stronger effect = lower value
# Procedure, shortened: as §1
# [5] = molecular target: Phenylethanolamine N-methyltransferase (Homo sapiens) (UniProt P11086); conditions: purified enzyme, MTase-Glo SAH luminescence; measured here: PNMT inhibition; at 40 µM; stronger effect = lower value
# Procedure, shortened: as §1
# On the % scale 0 is the no-effect control and ±100 the full control effect.
SMILES,"activity change, negative = inhibition [1] [%]","activity change, negative = inhibition [2] [%]","activity change, negative = inhibition [3] [%]","activity change, negative = inhibition [4] [%]","activity change, negative = inhibition [5] [%]"
CC(C)N1CC[C@@H]2[C@H]1C(=O)NC[C@H](CCC(=O)NCc1ccc(F)cc1)N2C,-0.539,-1.03,1.33,-0.293,1.81
CC1CCN(CCCNC(=O)CCc2nnc3n(Cc4ccc(F)cc4)c(=O)c4ccccc4n23)CC1,3.14,0.991,-59.4,1.12,0.153
CC1=CC(=O)C(=C(C)C)CC2C1CCC2(C)O (stereo not drawn),3.47,3.51,6.24,-9.86,0.144
O=C(c1ccc2ncccc2c1)N1CC(n2ccnc2)C1,-3.49,-4.05,-1.68,-1.11,-19.8
CCOC(=O)c1cc2n(n1)CC(C)(C(=O)NC1CCCCCC1)N(CCc1cccs1)C2=O (stereo not drawn),-0.708,9.44,-12.2,-4.12,4.35
COc1cc2c(N3CCN(C(=O)Nc4ccc(OC(C)C)cc4)CC3)ncnc2cc1OCCCN1CCCCC1,-6.74,6.55,-29.3,-34.3,-4.61
O=S(=O)(Nc1cccc2c1CCCC2)c1ccc2[nH]c3c(c2c1)CCCC3,0.037,0,-3.72,-27.3,-3.77
COC(=O)c1ccc(COc2ccc3c(-c4ccccc4)cc(=O)oc3c2C)o1,-0.122,0,6.04,3.29,-0.785
COC(=O)C#Cc1ccc([N+](=O)[O-])cc1,,-20.1,,-12.3,-1.7
NC(=O)c1cn(Cc2c(F)cccc2F)nn1,-5.75,4.64,1.79,-14,3.46
COc1cccc(CN2CCC3(CC2)COc2ccccc2CN3)c1,7.56,-6.05,-11.2,-10.9,-8.17
CCN1C(=O)c2cc(C(=O)NCc3ccc(Cl)cc3)nn2CC1(C)C(=O)NC1CCCC1 (stereo not drawn),-0.524,0,-0.381,-0.805,-0.807
C[C@@H]1C[C@@H]([C@@H](O)C(C)(C)O)O[C@H]2C[C@@]3(C)C(=C12)C[C@H](O)[C@H]1[C@@]2(C)CCC(=O)C(C)(C)C2CC[C@@]13C (stereo partly drawn),3.83,3.96,9.46,-8.77,-3.61
OC(c1ccc(-c2ccc(CN3CCN(Cc4ccncc4)CC3)cc2)c(F)c1)(C(F)(F)F)C(F)(F)F,-8.77,-19.3,-7.47,-24.6,-18.2
CCCn1c(=O)c2ccccc2n2c(=O)n(Cc3cccc(C)c3)nc12,0.05,0,7.47,0.814,2.47
COCCN1CC(CO)C2(CCN(C3CCN(C(C)=O)CC3)CC2)C1 (stereo not drawn),-5.78,-12.6,-5.16,-15.7,-9.42
COc1cccc(N2C(=O)CSc3c(c4ccccc4n3C)C2C(=O)NCc2ccccc2)c1 (stereo not drawn),10.4,0,8.16,11.3,6.76
